{"source": "PubChem BioAssay AID686979", "about": "(National Center for Advancing Translational Sciences (NCATS), 2013)", "note": "In all, about 420,000 compounds went through this assay and about 50,000 (12%) were called active. Inconclusive results, whose numbers are uncertain, are shown with a selection of clear calls. The call rests on the fitted dose curve; in most records, active means well fitted inhibition curve with a large enough effect; inconclusive means small, poorly fitted or top-dose-only effect; inactive means flat fitted curve, though single readings scatter. Potencies of inconclusive entries are left out as doubtful fits. On the % scale 0 is the no-effect control and ±100 the full control effect; potency means the concentration at half of the fitted maximal effect; tags describe the fitted curve by direction and shape."}
{"test": "qHTS for Inhibitors of human tyrosyl-DNA phosphodiesterase 1 (TDP1): qHTS in cells in presence of CPT; further: nearly all actives have a fitted effect of over 55% in size", "details": "chicken DT40 Tdp1-/-;hTDP1 cells + 20 nM CPT, ATP luminescence, 48 h; activity change, negative = growth inhibition: at 46.2 µM (top of the series) unless noted", "outline": "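Chicken DT40 Tdp1-/- cells complemented with human TDP1, 400 cells/well, exposed to compounds plus 20 nM camptothecin for at least 48 h at 37 C; viability read as ATP content by CellTiter-Glo luminescence.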"}
{"smiles": "Cc1ccc(NC(=O)CSc2nc3ccccc3c(=O)n2CCCN2CCCCC2)cc1C", "Potency": "active: 25.9 µM"}
{"smiles": "O=c1cc(-c2ccccc2)n2c(SCc3ccccc3)nnc2[nH]1", "Potency": "inactive"}
{"smiles": "Cc1cccc(C(=O)N[C@H](C(=O)Nc2ccc(C)c(S(=O)(=O)N3CCOCC3)c2)C(C)C)c1", "Potency": "inconclusive [inhibitor, single point]"}
{"smiles": "Cc1cccc(OCC(=O)Nc2cc(C)on2)c1", "Potency": "inactive"}
{"smiles": "Cc1cc(C)c(NC(=O)COC(=O)Cc2ccsc2)c(C)c1", "Potency": "inconclusive [inhibitor, single point]"}
{"smiles": "COc1cc(OC)c2ccc(=O)oc2c1C(CC(=O)N1CCCC1)c1ccc(N(C)C)cc1", "note": "(stereo not drawn)", "Potency": "inconclusive [inhibitor, single point]"}
{"smiles": "O=C(c1cccc(S(=O)(=O)N2CCCCC2)c1)N(CCc1ccccc1)Cc1ccccc1", "Potency": "active: 18.4 µM"}
{"smiles": "Cc1cccc(OC(C)C(=O)Nc2ccc(S(=O)(=O)N3CCCC3)cc2)c1", "note": "(stereo not drawn)", "Potency": "inconclusive [inhibitor, single point]"}
{"smiles": "CCNC(=S)NNC(=O)CSc1nc2ccccc2[nH]1", "Potency": "inactive"}
{"smiles": "CCCCCC(=O)NNC(=O)c1c(O)c2ccccc2n(CC)c1=O", "Potency": "inconclusive [inhibitor, single point]"}
{"smiles": "O=C(NCc1ccco1)c1ccc(COc2ccccc2Cl)cc1", "Potency": "inconclusive [inhibitor, partial curve, poor fit]"}
{"smiles": "COc1ccc([N+](=O)[O-])cc1NC(=O)c1ccc(CN(c2ccc(C)c(C)c2)S(C)(=O)=O)cc1", "activity change, negative = growth inhibition": "inconclusive: -31.6% [inhibitor]"}
{"smiles": "O=C(NCCN1CCOCC1)c1ccc2ccccc2n1", "Potency": "inactive"}
{"smiles": "O=C(Nc1ccc(N2CCN(C(=O)c3ccc(Cl)cc3)CC2)cc1)c1cccs1", "Potency": "inactive"}
{"smiles": "CC(C)CNC(=O)c1ccc2c(c1)C(=O)N(Cc1ccco1)C2=O", "Potency": "inactive"}
{"smiles": "CCN(CC)S(=O)(=O)c1ccc(OC)c(NC(=O)c2ccc(OC)c([N+](=O)[O-])c2)c1", "Potency": "inactive"}
{"smiles": "COCCN1C(=O)c2ccccc2C(C(=O)NCc2ccco2)C1c1c[nH]c2ccccc12", "note": "(stereo not drawn)", "Potency": "inactive"}
{"smiles": "CC(C)(C)c1ccc(OCCNC(=O)Cc2ccc(F)cc2)cc1", "Potency": "inconclusive [inhibitor, single point]"}
{"smiles": "CC(=O)N1N=C(c2ccc3ccccc3c2)OC1(C)C", "Potency": "active: 18.4 µM"}
{"smiles": "COC(=O)c1ccc2c(=O)n(CCN3CCOCC3)c(SCC(=O)Nc3ccccc3OC)nc2c1", "Potency": "inconclusive [inhibitor, single point]"}
{"smiles": "CCOc1ccc(S(=O)(=O)NCCC(=O)NCCc2ccc(C(C)C)cc2)cc1", "Potency": "inconclusive [inhibitor, single point]"}
{"smiles": "CCOC(=O)c1cnc2ccc(OC)cc2c1NCCc1ccccc1", "Potency": "inconclusive [inhibitor, single point]"}
{"smiles": "CC1(c2cccc(Br)c2)NC(=O)N(CC(=O)N2CCc3ccccc32)C1=O", "note": "(stereo not drawn)", "Potency": "inactive"}
{"smiles": "CCn1c(C)nc2c(C)[n+](CC(=O)c3ccc(Br)cc3)ccc21", "Potency": "inactive"}
{"smiles": "C=C1CCN([C@@H](C)C(=O)NCc2ccc(Cl)cc2)S(=O)(=O)c2ccccc21", "Potency": "inconclusive [inhibitor, single point]"}
{"smiles": "O=C(NCc1ccccc1)c1sc(=S)n2c1[nH]c(=O)c1ccccc12", "Potency": "inactive"}
{"smiles": "CCn1cc(C(=O)OCC(=O)NCc2ccccc2Cl)c(=O)c2ccc(C)nc21", "Potency": "inconclusive [inhibitor, single point]"}
{"smiles": "CCN(CC)CCSc1nc2ccccc2n1Cc1ccccc1", "Potency": "inconclusive [inhibitor, single point]"}
{"smiles": "c1ccc(CCCNc2ncccn2)cc1", "Potency": "inactive"}
{"smiles": "Clc1ccccc1-c1ccc2ncnc(NC3CCNCC3)c2c1", "Potency": "inconclusive [inhibitor, single point]"}
{"smiles": "Cc1cc(NC(=O)CN2C(=O)NC(C)(c3ccc(OC(F)F)cc3)C2=O)no1", "note": "(stereo not drawn)", "Potency": "inconclusive [inhibitor, partial curve]"}
{"smiles": "COc1ccc(N2CC(NC(=O)COc3ccccc3)CC2=O)cc1OC", "note": "(stereo not drawn)", "Potency": "inactive"}
{"smiles": "Cn1cccc1/C=N/NC(=O)c1ccc[n+]([O-])c1", "activity change, negative = growth inhibition": "inconclusive: -7.46% [inhibitor]"}
{"smiles": "COc1ccc2c(=O)c(C(=O)NCCc3ccccc3)c[nH]c2c1", "Potency": "active: 16.4 µM"}
{"smiles": "Cc1cccc(CNC(=O)Cn2nc(C)n3c(cc4cc(F)ccc43)c2=O)c1", "Potency": "inactive"}
{"smiles": "Cc1ccc(C)c(S(=O)(=O)NCc2ccc(C(=O)N3CCCCC3C)cc2)c1", "note": "(stereo not drawn)", "Potency": "inconclusive [inhibitor, partial curve]"}
{"smiles": "CCc1ccc(-n2nc3cc(C)c(NC(=O)c4cccc5ccccc45)cc3n2)cc1", "Potency": "active: 20.6 µM"}
{"smiles": "C=CCc1ccccc1OCC(=O)NNC(=S)NCc1ccccc1", "Potency": "active: 6.51 µM"}
{"smiles": "CCC(=O)N1CCc2cc(S(=O)(=O)N3CCc4ccccc4C3)ccc21", "Potency": "inconclusive [inhibitor, single point]"}
{"smiles": "COc1ccc(OC)c(Nc2ncnc3sc(-c4ccccc4)cc23)c1", "Potency": "inconclusive [inhibitor, single point]"}
{"smiles": "CN(c1ncnc2onc(-c3cccc(Cl)c3)c12)C1CCCCC1", "Potency": "inconclusive [inhibitor, partial curve, poor fit]"}
{"smiles": "O=C(NC1CCN(S(=O)(=O)c2ccc(F)cc2)CC1)c1cccc(F)c1", "Potency": "inactive"}
{"smiles": "CC(=O)Nc1cc(NC(C)=O)cc(C(=O)OCC(=O)N(c2ccccc2)C2CCS(=O)(=O)C2)c1", "note": "(stereo not drawn)", "Potency": "inactive"}
{"smiles": "Nc1c(C(=O)NC2CCCC2)c2nc3ccccc3nc2n1/N=C/c1cccnc1", "Potency": "active: 16.4 µM"}
{"smiles": "COc1ccc(OC)c(-c2csc(NC(=O)c3ccc(F)cc3)n2)c1", "Potency": "active: 7.31 µM"}
{"smiles": "CC(C)(C)OC(=O)CNC(=O)c1[nH]cnc1C(=O)N[C@@H](CCCCNC(=O)OC(C)(C)C)C(=O)OC(C)(C)C", "Potency": "inconclusive [inhibitor, partial curve, poor fit]"}
{"smiles": "C=C(C(=O)Nc1ccccc1)c1ccc(C)cc1", "Potency": "inconclusive [inhibitor, partial curve]"}
{"smiles": "Cc1ccccc1C(=O)NC(=S)Nc1ccccc1N1CCCC1", "Potency": "inconclusive [inhibitor, single point]"}
